Assay results as given in patent US20220372150A1 (ZHEJIANG DOER BIOLOGICS, published 2022).

Legend:
[1] = biological target: T1, PDL1-HSA fusion protein composed of PDL1 extracellular domain and human serum albumin (human); experiment: competitive ELISA on coated PDL1-HSA; competitor bio-PD1-Fc (4 µg/mL, mixed in equal volume)
T1 construct: The entry is the whole fusion: PD-L1 extracellular domain, linker, human serum albumin; also called Human PDL1-HSA; hPDL1-HSA

[2] = biological target: T1, PDL1-HSA fusion protein composed of …; experiment: ELISA on coated PDL1-HSA, anti-human Fc detection

IC50 [1]	EC50 [2]	Binder
0.0386 mg/L	0.1 nM	Anti-PDL1-1G10V3-Fc (Fc fusion, also called hu1G10V3 fused with human IgG1 Fc) QVQLVESGGGLVQPGGSLRLSCAASGRPFITYAMGWFRQAPGKGLEFVAAINWSGSITAYADSVKGRFTISRDNSKNTLYLQMNSLRAEDTAVYYCASKRTAVAPRALNDYDFWGQGTLVTVSS[human IgG1 Fc not spelt out]
0.0335 mg/L	0.07 nM	Anti-PDL1-1D1-FC (Fc fusion) QLQLVESGGGLVQAGGSLRLSCAASGGTFITYAMGWFRQAPGKDREFVAGISWSGSSTYYTDSVKGRFTISRDNAKNTVYLQMNSLKPGDTAVYYCAAKISGATREHLMTSYDYWGQGTQVTVSS[human IgG1 Fc not spelt out]
0.0335 mg/L	0.08 nM	Anti-PDL1-5A8V3-Fc (Fc fusion, also called hu5A8V3 fused with human IgG1 Fc) QVQLVESGGGLVQPGGSLRLSCAASGGTFITYAMGWFRQAPGKGLEFVAGISWSGSSTYYADSVKGRFTISRDNSKNTLYLQMNSLRAEDTAVYYCAAKISGATREHLRTSYDYWGQGTLVTVSS[human IgG1 Fc not spelt out]
0.0377 mg/L	0.08 nM	Anti-PDL1-1D7V3-Fc (Fc fusion, also called hu1D7V3 fused with human IgG1 Fc) QVQLVESGGGLVQPGGSLRLSCAASGRAFLTYAMGWFRQAPGKGLEFVAAISWSGSSTYYADSVKGRFTISRDNSKNTLYLQMNSLRAEDTAVYYCAAKVSGATRDHLMTTYDYWGQGTLVTVSS[human IgG1 Fc not spelt out]
0.0396 mg/L	0.09 nM	Anti-PDL1-6F1V3-Fc (Fc fusion, also called hu6F1V3 fused with human IgG1 Fc) QVQLVESGGGLVQPGGSLRLSCAASGRTFSTHSMGWFRQAPGKGLEFVAAINWNGDSTYYADSVKGRFTISRDNSKNTLYLQMNSLRAEDTAVYYCAARPGAPSTIVAMLDYWGQGTLVTVSS[human IgG1 Fc not spelt out]
0.0433 mg/L	0.07 nM	Anti-PDL1-1D7-FC (Fc fusion) QVQLVESGGGLVQPGGSLRLSCAASGRAFLTYAMGWFRQAPGKEREFVAAISWSGSSTYYADSVKGRFTISRDNAKNMVYLQMNSLKPEDTAVYYCAAKVSGATRDHLMTTYDYWGQGTQVTVSS[human IgG1 Fc not spelt out]

The next lines start with the binder.

Binder	IC50 [1]	EC50 [2]
Anti-PDL1-1G10-FC (Fc fusion) QVQLVESGGGLVQAGGSLRLSCAASGRPFITYAMGWFRQAPGKEREFVAAINWSGSITAYADSVKGRFTISRDNAKNAAYLQMNSLKPDDTAVYYCASKRTAVAPRALNDYDFWGQGTQVTVSS[human IgG1 Fc not spelt out]	0.0412 mg/L	0.08 nM
Anti-PDL1-1A7-FC (Fc fusion) QLQLVESGGDLVQPGGSLRLSCAASGSIFSANLIDWYRQPPGKQRELVAVISSRGITSYADSVKGRFTISRDNAKNTVYLQMNSLKPEDTAVYYCHLFHTDGLGYWGQGTQVTVSS[human IgG1 Fc not spelt out]	0.0435 mg/L	0.07 nM
Anti-PDL1-1A7V3-Fc (Fc fusion, also called hu1A7V3 fused with human IgG1 Fc) QVQLVESGGGLVQPGGSLRLSCAASGSIFSANLIDWYRQAPGKGLELVAVISSRGITSYADSVKGRFTISRDNSKNTLYLQMNSLRAEDTAVYYCHLFHTDGLGYWGQGTLVTVSS[human IgG1 Fc not spelt out]	0.0335 mg/L	0.09 nM
Anti-PDL1-1D1V3-Fc (Fc fusion, also called hu1D1V3 fused with human IgG1 Fc) QVQLVESGGGLVQPGGSLRLSCAASGGTFITYAMGWFRQAPGKGLEFVAGISWSGSSTYYADSVKGRFTISRDNSKNTLYLQMNSLRAEDTAVYYCAAKISGATREHLMTSYDYWGQGTLVTVSS[human IgG1 Fc not spelt out]	0.0346 mg/L	0.1 nM
